# Laboratory results from the supplement of paper PMC3334620.
# In all, about 33,000 sequences were measured (“E-score (-0.5 to 0.5)”: median about -0.016, highest 2% from about 0.31 on). Some of the results follow.
# Biological target: Cst6 (UniProt P40535)
# Assay: PBM E-score (8-mer binding enrichment) (E-score (-0.5 to 0.5)); higher = stronger / more preferred TF binding; most listed sequences are background and not binding sites
# Conditions: protein concentration: 200 nM; construct: GST-DNA-binding domain
# How it was run: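 GST-tagged yeast TFs (full-length or DNA-binding domain) were made by PURExpress in vitro transcription/translation and applied at about 100-200 nM to universal all-10-mer Agilent arrays. The arrays were made double-stranded by primer extension, on fresh or once-stripped slides. Bound protein was detected with fluorescent anti-GST, and scans were normalised with masliner. Each ungapped eight-base word, pooled with its reverse complement, received an E-score (modified Wilcoxon-Mann-Whitney statistic) from the Universal PBM Analysis Suite.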
row,Sequence,PBM E-score
1,AGTACATA,-0.0373
2,ATTCTCAA,0.181
3,AGGTTAAA,-0.0484
4,CGAGGGCG,-0.195
5,ACACAGAC,0.0563
6,ATATATGG,0.228
7,ACCATATC,-0.0686
8,TCCTCAAA,-0.0326
9,CGCTCCCC,-0.251
10,ACGATTCA,-0.00128
11,AGGGTAAT,0.0978
12,GGCCGACC,-0.336
13,TATGCAAA,0.00091
14,AAATGCTA,0.0446
15,AACGGGCA,-0.155
16,AGAATATA,0.176
17,AATGCATC,0.115
18,CTCTACGA,-0.095
19,TACATAGA,0.0865
20,AGCCTCCG,-0.245
21,CCACGCTA,-0.102
22,CAGTGTCA,0.0419
23,ACAGGTTG,-0.0827
24,CCGTTTCA,0.131
25,GATTGGAA,-0.0964

row,Sequence,PBM E-score
1,AAGTCATA,0.283
2,GATACTAA,0.133
3,GTCTCACA,0.0607
4,AGAGGGGA,-0.321
5,AACCGGCG,0.0364
6,GCAACCGC,0.00174
7,ATGGAAAG,0.167
8,ACGCAAGA,0.122
9,TCCTCGCA,-0.22
10,CAAAGATG,-0.0508
11,CCATCCTC,-0.0949
12,AGTCCTGG,-0.272
13,AACTTTGA,0.124
14,ACCCGTCG,-0.263
15,AGGAAAGA,-0.106
16,CGCATCTC,-0.022
17,AGCACTCG,-0.351
18,ACGGATAA,0.205
19,CCACTTCC,-0.0696
20,AGTTTGAC,0.0432
21,ATCAAGAC,0.114
22,GAAACACA,0.122
23,GACCCATC,-0.183
24,CGCGGAAA,0.0185
25,CAGCGACA,-0.24

row,Sequence,PBM E-score
1,CTGCTGCA,-0.152
2,CGCAGAAC,0.208
3,CATTTCGG,-0.106
4,ACTTCCTG,-0.129
5,GAATCAAA,-0.121
6,ATACTTAC,0.213
7,CGATGCAG,-0.141
8,TAATGCCA,0.197
9,GCCTCAAC,-0.0374
10,ACTTATCA,-0.0145
11,ATAAGGGG,-0.114
12,TAGACACA,-0.101
13,AGTTGTCA,0.205
14,TCTATCCA,-0.0177
15,CAGGGGGG,-0.413
16,AGCTATTG,-0.0728
17,CCTACCGC,-0.16
18,AGGTGTTC,-0.181
19,ATGTCGCA,-0.0497
20,CAGAGGGA,-0.291
21,CGGAACAC,0.0157
22,AGTCGTTG,-0.171
23,ATACGCGC,0.064
24,AAGAAGAA,0.0641
25,GCGATATA,0.085

row,Sequence,PBM E-score
1,CGTCACCC,0.466
2,CATAGCGA,-0.0109
3,GTCCCTGA,-0.178
4,AGGTGGGG,-0.0662
5,CACAGTTC,-0.122
6,CACTTTCG,0.2
7,AAAATGGC,0.175
8,GAGATGGC,0.051
9,GTCCAGAA,0.0316
10,ATGACTGG,-0.216
11,CCGTCCCG,-0.219
12,GAGCTATC,-0.129
13,CCTTATGC,0.0524
14,GCGGCGGA,0.0162
15,TGCATTAA,0.21
16,TCTTACCA,-0.00252
17,CAAGTAGA,-0.229
18,AGGGACGA,0.0201
19,CCGGCAAC,-0.0928
20,CTAGGAAA,-0.0799
21,ACCCCGAC,-0.311
22,CGGGCTAA,-0.18
23,TAATAGAA,0.152
24,AGTCGAGG,-0.135
25,ACTTACCA,-0.0152

row,Sequence,PBM E-score
1,CCTTGGGA,-0.133
2,CTCAACTA,0.0351
3,AGGGTCAG,-0.285
4,AGACAGAC,0.27
5,GTAGACTA,-0.249
6,ATATAGAA,0.172
7,GAACGAAC,0.0931
8,AAAGTCCA,-0.128
9,AGCCTGGA,-0.278
10,AATCCCTA,-0.0579
11,AGGGCTAG,-0.242
12,ACTATCCT,-0.0869
13,GGCGATAA,0.0598
14,CACATCCC,-0.273
15,ATGATGAA,0.367
16,AGGCCGAA,-0.171
17,GACATTAC,0.197
18,CTCTGGTA,-0.21
19,AGCCGTGG,0.00348
20,ACAAGGTG,0.12
21,GACGAGGA,-0.0483
22,TATCGCGA,-0.0421
23,ACCAACTG,-0.0621
24,AGATCGTC,-0.112
25,CATAGTGG,-0.139

row,Sequence,PBM E-score
1,AGAAGCAG,-0.138
2,TGCATGAA,0.0867
3,CCACTAAC,0.0558
4,CACCGTCG,-0.174
5,AGCAGATA,0.0165
6,CTTGCATA,0.163
7,ATTTTGAA,0.223
8,GACTCAAC,0.0642
9,ATTTACGG,0.238
10,GATACAAC,0.211
11,AAAGAGGT,0.0339
12,ACCACTAT,-0.178
13,AAGGGATT,-0.0403
14,ACTGAGGA,-0.163
15,ACCCAGCG,-0.12
16,ATTTAGCC,0.0684
17,CCATTTAC,0.105
18,GGGGATCA,-0.158
19,CAAAGCAC,-0.0689
20,CTGTCTTC,-0.156
21,ACTTCGGG,-0.19
22,AAAGTCCC,-0.259
23,ACCTTGCT,-0.0896
24,ATATGGAT,0.101
25,TAGCGGAA,-0.155

row,Sequence,PBM E-score
1,ATCCACTG,-0.0682
2,ACAGCTAG,-0.256
3,CGGCACGC,0.0275
4,AAAGTTCA,-0.0506
5,ACTTTACG,0.198
6,TGCCAAAA,0.0693
7,CGTGGGAA,0.0103
8,GTATTAAC,-0.0108
9,GATAGAGC,-0.0398
10,CCCGAATA,-0.00448
11,AAGTAGAC,-0.199
12,AAATTATT,0.314
13,TGCTGTAA,0.0304
14,AACCTGAA,-0.181
15,CATGGCAA,0.0585
16,GCCGAACA,0.0201
17,TTCAACAA,0.235
18,CCAACTAG,-0.0658
19,ACACAGGG,-0.037
20,GGGCTTGA,-0.178
21,CCAATTGC,0.00419
22,AGAGACTG,-0.253
